Reference: the supplement of paper PMC8728848
Some of the results follow.

What was measured:
[1] = target: Neu5Gc(a2-8)Neu5Gc(a2-6)Gal(b1-4)GlcNAc; assay: glycan array binding signal (z-score within array); higher = stronger binding; conditions: glycan notation: IUPAC condensed, linker removed
Summary of the method: (§1)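 The Consortium for Functional Glycomics database supplied 3228 glycan arrays, of which those lacking an available protein sequence were dropped. The binding signal, a within-array Z-score, was averaged across arrays of the same protein sequence and across linkers. Negative scores can be read as non-binding.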

[2] = target: Neu5Gc(b2-6)Gal(b1-4)GlcNAc; assay: as above; conditions: glycan notation: IUPAC condensed, linker removed
Summary of the method: as §1

B1: Dectin2 (Homo sapiens), Q6EIG7 (protein)
chain: MMQEQQPQSTEKRGWLSLRLWSVAGISIALLSACFIVSCVVTYHFTYGETGKRLSELHSYHSSLTCFSEGTKVPAWGCCPASWKSFGSSCYFISSEEKVWSKSEQNCVEMGAHLVVFNTEAEQNFIVQQLNESFSYFLGLSDPQGNNNWQWIDKTPYEKNVRFWHLGEPNHSAEQCASIVFWKPTGWGWNDVICETRRNSICEMNKIYL
- glycan array binding signal (z-score) [1]: -0.174
- glycan array binding signal (z-score) [2]: -0.162
